# Experimental data reported in publication PMC5468325 (2017).
# T1: Eu-INSL3 (Homo sapiens, UniProt P51460)
# T1 chain 1: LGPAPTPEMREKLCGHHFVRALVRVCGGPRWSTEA
# T1 chain 2: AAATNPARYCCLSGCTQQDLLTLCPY
# B1: RXFP2 (protein)
# chain: MIVFLVFKHLFSLRLITMFFLLHFIVLINVKDFALTQGSMITPSCQKGYFPCGNLTKCLPRAFHCDGKDDCGNGADEENCGDTSGWATIFGTVHGNANSVALTQECFLKQYPQCCDCKETELECVNGDLKSVPMISNNVTLLSLKKNKIHSLPDKVFIKYTKLKKIFLQHNCIRHISRKAFFGLCNLQILYLNHNCITTLRPGIFKDLHQLTWLILDDNPITRISQRLFTGLNSLFFLSMVNNYLEALPKQMCAQMPQLNWVDLEGNRIKYLTNSTFLSCDSLTVLFLPRNQIGFVPEKTFSSLKNLGELDLSSNTITELSPHLFKDLKLLQKLNLSSNPLMYLHKNQFESLKQLQSLDLERIEIPNINTRMFQPMKNLSHIYFKNFRYCSYAPHVRICMPLTDGISSFEDLLANNILRIFVWVIAFITCFGNLFVIGMRSFIKAENTTHAMSIKILCCADCLMGVYLFFVGIFDIKYRGQYQKYALLWMESVQCRLMGFLAMLSTEVSVLLLTYLTLEKFLVIVFPFSNIRPGKRQTSVILICIWMAGFLIAVIPFWNKDYFGNFYGKNGVCFPLYYDQTEDIGSKGYSLGIFLGVNLLAFLIIVFSYITMFCSIQKTALQTTEVRNCFGREVAVANRFFFIVFSDAICWIPVFVVKILSLFRVEIPDTMTSWIVIFFLPVNSALNPILYTLTTNFFKDKLKQLLHKHQRKSIFKIKKKSLSTSIVWIEDSSSLKLGVLNKITLGDSIMKPVS
# modifications: Eu-labeled INSL3
# Target: T1, Eu-INSL3
# Experiment: saturation whole cell binding
binder,measurement,value
B1,Kd,1 nM
